# Some of the results follow.
# Test system: PfSIP2 AP2 domain 1 (GST-tagged)
# Assay: gcPBM binding intensity (ln(normalized median fluorescence intensity)); higher = stronger DNA binding
# How it was run: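 The highest Masliner-normalised natural-log median intensity across replicate spots of either probe orientation is reported as binding intensity. GST-tagged P. falciparum DNA-binding domains expressed in E. coli were applied for 1 h to an Agilent 4 × 180k array of primer-extended double-stranded 36-bp intergenic genomic probes plus negative controls, and bound protein was detected with Alexa488 anti-GST antibody and scanned at 488 nm.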
row,Sequence,gcPBM binding intensity (ln)
1,ATATATAAATATATATGTACACACATATACATGTTG [XGTACX_site6653],7.16
2,TGTTTAATCACATGTTTGCACTTTCCTTTTGTAAAT [GTGCAC_site9893],8.09
3,TCTTAAAATCGGAAATGAAATAAAGTTTACAATATG [TGCATGCA_negctrl_site553],6.56
4,TGATTCTGTCATGGTGCACACCAGAACCATTATAAA [CACACA_site1965],11.9
5,TACCTATATACATACACACACATATAACCAATGTAG [CACACA_site7096],7.23
6,AGAAGATTAAAAATTGCACACAAAAATATATTTTCT [CACACA_site8359],7.04
7,TAATAAATAAAAACATGTACATATATACATATATGT [XGTACX_site485],7.1
8,GATATATAGGTATTTACACACAATGTGAGATCTATA [CACACA_site7575],6.77
9,AAAGACTTTTTATGAGCACACACATATATTATGGAG [CACACA_site8254],6.99
10,TTTCTATAATATATATGTACATATATAATATGTCGT [XGTACX_site3676],7.22
11,AGATAAAATAAATACACACACATAAATACGTACAAA [CACACA_site4739],7.39
12,TGATAATAAGCATACACACACACACTAAAAAAAAAA [CACACA_site6478],7.06
13,ATGATTATACAAAATATACACACGTGGACACAAATA [CACACA_site8304],7.18
14,ATTAAAATAGAAAAAAAAAAAAAAAAAAAAAAAAAA [CACACA_negctrl_site1117],7.1
15,GATGATACACAGGTGTTGCACTTAAATGCAGTTCTT [GTGCAC_site9627],9.71
16,TATGGGGAACTATAATGTACGTATTCCTCATATATA [XGTACX_site338],6.99
17,TTTTCAAAATGTTGTACACACAAAAAAAAAAAAAAA [CACACA_site1550],7.56
18,TTGATATACTATGACACATGCAAATAAAACATTATA [TGCATGCA_site535],7.07
19,TAATCATTTTTAAATTGTACAATTTATATAATAAGT [XGTACX_site6081],7.1
20,TAAATTTTGTTTAGCACACACACATACATACATACA [CACACA_site3155],7.82
21,TTGTATTGTATATGCACACATAGAACACTTTTTTTT [CACACA_site4133],7.19
22,TATTTTTTAAGTGAACATTTGTTATTATATTCTTAT [GTGCAC_negctrl_site172],6.86
23,TATATCTGTATCATTACACACATGTATACTTATTTG [CACACA_site6134],6.93

row,Sequence,gcPBM binding intensity (ln)
1,TTTTTTTATAAATTCACACAAAATATAATATTAAAA [CACACA_site4766],6.82
2,CTATATATTTTTCATTGTACACAAATTAAAGAAAAA [XGTACX_site8385],7.44
3,AATGTCATCATATTCATATATATTTATTTCTTTTTG [GTGCAC_negctrl_site500],6.81
4,ATATAATCCTTTCAAACACACAAAATATAATTAATA [CACACA_site1829],7.08
5,ATGATGGAATATTCTACACACAATTAATAAACAAAC [CACACA_site1045],7.32
6,GGTTATAACCCACATGCACACGTAAATAAATATTAT [CACACA_site5992],7.4
7,ATAAATAATAAGGTTACAACAAACACACAAAGGAAT [XGTACX_negctrl_site611],7.33
8,TAAAAAAAAAAGTATACACACTTCTTAATGTCAACA [CACACA_site4818],6.71
9,TGTCCAATTTATTGTGCACACCTCAAAAGTGGGTAA [CACACA_site3826],9.41
10,TATAAATAGATATATACACACATTTTTAATGATAAA [CACACA_site7299],6.6
11,AAAAAAAAAAGACACACACACAATAGTATATAAATC [CACACA_site6579],6.83
12,TTTTTATTTTTTCAAGTGCATATTTTTGGCTTCTTA,7.93
13,TATATATATATATTACGTTTTAAATATACTAATCTT [CACACA_negctrl_site32],8.98
14,CTTTTTCCTTTATATTGTACATAATTAAAGATAATA [XGTACX_site7014],7.37
15,AAAAAAAAAAAAAATACACACATATATATATATATA [CACACA_site85],9.54
16,TAAATACAGACATATACACACATATATATATATATA [CACACA_site4382],9.36
17,ATGTATATGTTTTGTTGTACAAGTATTTTATATCTT [XGTACX_site3588],7.21
18,TAAAGATGTATTTATTCACACATCTCATATAATGAA [CACACA_site5229],6.76
19,TTATGTATCCTTATAAGAAAAAAAAAAAAATTCTCT [CACACA_negctrl_site1183],6.77
20,AATAAAAATATAGGCACACATATTAAAATGAACTTA [CACACA_site830],6.78
21,TGAATTTAGATATATACACACAAAAGTAAATACAAT [CACACA_site5548],7.03
22,TTTAAATATATTCAATCACACACATTCGTTTTTTTT [CACACA_site7962],6.9
23,AATATATACATACATACATGCATACATATATATAAC [TGCATGCA_site371],7.28

row,Sequence,gcPBM binding intensity (ln)
1,AGTAGTCTGGAGAAAAGTACACAGTATCTGGTAACC [XGTACX_site2035],7.17
2,GAATATTAAACAAACACACACACATATATATATATA [CACACA_site3382],9.4
3,GTTTATTGATTTATTTGTACTTATATATATATTTCA [XGTACX_site5098],7.34
4,GTATAAAAATTATATACACACAACAGAATTACATAT [CACACA_site133],7.03
5,AAGGATATGAAAAGTAGTACAAAATTTAGAACACCC [XGTACX_site4758],7.37
6,TTACGATTAAATATAACACACAACATATTTTTAATA [CACACA_site2967],6.98
7,ATTATATTCTCCTTCACACACAAAAATATTTCATCA [CACACA_site5326],7.18
8,CACAAAAATTTATACACACACATATATAATATATAT [CACACA_site152],7.35
9,AAGTATTACAACCACACACACACCTATATATCATAG [CACACA_site7878],7.08
10,ATCTTTTACGAATACACACACATAAAGAAAAAAAAA [CACACA_site1331],7.34
11,ATTTCAAATTAATTTACACACTTCATACTAAAAGAC [CACACA_site3176],7.6
12,TTGATATATAATAATACACACTTACATAATTAATTA [CACACA_site4320],6.88
13,TCCTACATATAAAAATGTACCCATTGTTTTTTTTTT [XGTACX_site7205],6.84
14,TATATATATATATATACACACATATACATATTGTTT [CACACA_site3499],9.71
15,TTGTGTTAACTACCATGTACTTATACATCATAGGAA [XGTACX_site6627],6.98
16,AATGTATATAGAAACATGCACACGTGGTTGTATATA [CACACA_site3278],7.29
17,TTTTTGTATGCTTCCCGATTACATTATGTTGTAAAT [CACACA_negctrl_site227],7.06
18,ATTTATGTTATATATACACACACAAAAGAAAAAAAA [CACACA_site8977],7.05
19,ATACATATAAAAAAGTGTACATATTAAAATAAGTAT [XGTACX_site1310],6.99
20,TTTTTTATAAATCAAATGAAAAATAAACTATTCAGA [CACACA_negctrl_site1568],6.59
21,ATATCCGTTCAAAGATGTACATATATATTCTATAGA [XGTACX_site5354],7.29
22,AATGCAAATAATAAAACACACAAAAAAAAGAAAAAA [CACACA_site1184],6.62
23,TCATACAAACCTATTTGTACATAAGTATAATATATA [XGTACX_site4284],6.96

row,Sequence,gcPBM binding intensity (ln)
1,TATTGCCCTGGACACACACACATATATATATATATA [CACACA_site5389],9.4
2,ATAATATAAACATACACACACACATCTATATTTATA [CACACA_site7381],7.08
3,TTATGTTATATAAAAAGTACAAATTTTTTTTAATTA [XGTACX_site3435],6.97
4,ATTATTATTATATATGCATGTAAAATATTAAAGTAC [TGCATGCA_site914],7.59
5,TTTCTTTCTATTGTTATATTTATAATAATTATAATT [XGTACX_negctrl_site215],7.09
6,TGTTTAAGTGTTTTTAGTACTTATAAAAATATTATC [XGTACX_site7379],6.98
7,TATAAAATTACATTTTGTCATTTATTTTTTCCCACT [TGCATGCA_negctrl_site110],6.85
8,ATATTATCCCTATTTGCACACAAGAGTAATTTTTTA [CACACA_site3908],7.42
9,TTTCTAATATATAAAGTGCAATACCATTCAGAGTTA,7.28
10,ATTGTCTTTTAATAGTGTACTTATTTTAAATATTGC [XGTACX_site8517],7.17
11,TTTTATAGAGTGTATACATGCAATACCACATAAAAT [TGCATGCA_site476],7.12
12,ATATGGAAGAATTAAAGTACTTAAAAAAATGTCAGT [XGTACX_site6837],7.48
13,AAGAAAATAAAATAAAATAAAATAAAATAAAAATAT [TGCATGCA_negctrl_site493],6.77
14,TATAATTTATAAGTAGTGCATTTCTTTTCATTTTTA,9.07
15,TGATGATATAAAAACACACACATATAACATAATACT [CACACA_site6687],7.04
16,TTATTATATATAAGTAGTACAAACAATTAAGAGATA [XGTACX_site4009],7.27
17,TTTTTTTTTTTTAATACACACATATATATATTTATT [CACACA_site3994],6.97
18,GTAAAAAAAAAAAAATGTACACATATATATAATATA [XGTACX_site159],6.91
19,AACATAATTAAAAATTGTACAGAATTTCAATCGAAA [XGTACX_site7542],6.76
20,ATAAAAATGTATATATGTACATATATATATATATAT [XGTACX_site1505],9.79
